# Several values for one entry are separate records, joined by “and”; a condition that tells them apart may be missing. Identical values can stand only once. Counter-ions that a name gives are not always drawn. ± gives the standard deviation of the averaged measurements. The full ranking holds about 2,600 compounds; the median of “MBP+ mature oligodendrocyte number relative to DMSO vehicle control” is about -0.34, and the highest 2% start at about 13. The list shows a part of the results.
# Test system: jimpy (Plp1 jimpy) mouse iPSC-derived oligodendrocyte progenitor cells
# Test: MBP+ mature oligodendrocyte number relative to DMSO vehicle control (SDs above negative control mean); higher = more surviving jimpy oligodendrocytes (rescue)
# Conditions: 10 µM; 3 days
# 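Note: 10 µM single dose with 3-day oligodendrocyte differentiation.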
row,SMILES,MBP+ mature oligodendrocyte number
1,CC(=O)O[C@]1(C(C)=O)CC[C@H]2[C@@H]3C[C@H](C)C4=CC(=O)CC[C@]4(C)[C@H]3CC[C@@]21C [Medroxyprogesterone acetate],16.5
2,O=C(O)c1cc(-c2ccccc2)nc2ccccc12 [Cinchophen],2.43
3,C[C@H]1C[C@@H]2[C@H]([C@@H](O)C[C@@]3(C)[C@H]2CC[C@]3(O)C(=O)CO)[C@@]2(C)C=CC(=O)C=C12 [Methylprednisolone],6.01
4,NC(=O)C(c1ccccc1)(c1ccccc1)[C@@H]1CCN(CCc2ccc3c(c2)CCO3)C1 [Darifenacin HBr],-5.37
5,CCCNCC(O)COc1ccccc1C(=O)CCc1ccccc1 (stereo not drawn) [Propafenone HCl],6.27
6,CCCNCC(O)COc1ccccc1C(=O)CCc1ccccc1 (stereo not drawn) [Propafenone hydrochloride],0.578
7,O=C1c2ccc(Nc3ccc(F)cc3F)cc2CCc2ccc(OC[C@H](O)CO)cc21 [Skepinone-L],2.6
8,COc1cc(/C=C(\C#N)C(=O)Nc2nnc(C(F)(F)F)s2)ccc1OCc1ccc(C(F)(F)F)cc1C(F)(F)F,0.182
9,COc1ccccc1OCC(O)CN1CCN(CC(=O)Nc2c(C)cccc2C)CC1 (stereo not drawn) [Ranolazine],6.01
10,COc1ccccc1OCC(O)CN1CCN(CC(=O)Nc2c(C)cccc2C)CC1 (stereo not drawn) [Ranolazine dihydrochloride],0.86
11,COc1ccccc1OCC(O)CN1CCN(CC(=O)Nc2c(C)cccc2C)CC1 (stereo not drawn) [Ranolazine 2HCl],4.56
12,O=[N+]([O-])c1cccc2cn[nH]c12 [7-Nitroindazole],-0.872
13,COc1cc([C@@H]2c3cc4c(cc3[C@@H](O[C@@H]3O[C@@H]5CO[C@@H](C)O[C@H]5[C@H](O)[C@H]3O)[C@H]3COC(=O)[C@H]23)OCO4)cc(OC)c1O [Etoposide],-5.58 ± 1.6
14,OC[C@H]1O[C@@H](Oc2cc(O)cc(/C=C/c3ccc(O)cc3)c2)[C@H](O)[C@@H](O)[C@@H]1O [Polydatin],-1.45
15,COc1ccc(C2CNC(=O)C2)cc1OC1CCCC1 (stereo not drawn) [Rolipram],1.2 ± 1.8
16,CC(/C=C/c1cccc(Oc2ccc(F)cc2)c1)N(O)C(N)=O (stereo not drawn),0.235
17,O=c1c(O)c(-c2ccc(O)cc2O)oc2cc(O)cc(O)c12 [Morin],0.657
18,O=c1c(O)c(-c2ccc(O)cc2O)oc2cc(O)cc(O)c12 [Morin Hydrate],3.08
19,CC(=O)Nc1nc(C)c(-c2ccc(Cl)c(S(=O)(=O)NCCO)c2)s1,-4.97
20,O=S(=O)(O)c1cc(O)ccc1O [Ethamsylate],-0.692
21,CC(C)C[C@H](NP(=O)(O)O[C@H]1O[C@H](C)[C@@H](O)[C@H](O)[C@@H]1O)C(=O)N[C@@H](Cc1c[nH]c2ccccc12)C(=O)O [Phosphoramidon disodium],-0.211
22,O=C1C[C@@H](c2ccc(O)cc2)Oc2cc(O)cc(O)c21 [Naringenin],3.64
23,CCC(=O)O[C@]1(C(=O)CCl)[C@@H](C)C[C@H]2[C@@H]3CCC4=CC(=O)C=C[C@]4(C)[C@@]3(F)[C@@H](O)C[C@@]21C [Clobetasol propionate],12.8
24,CCOC(=O)[C@H](CCc1ccccc1)N[C@H]1CS[C@H](c2cccs2)CN(CC(=O)O)C1=O [Temocapril HCl],1.57
25,COc1ccc(F)c(F)c1C(=O)c1cnc(NC2CCN(S(C)(=O)=O)CC2)nc1N,< -6.01

row,SMILES,MBP+ mature oligodendrocyte number
1,CCCCC(F)(F)[C@@]1(O)CC[C@H]2[C@@H](CC(=O)[C@@H]2CCCCCCC(=O)O)O1 [Lubiprostone],25.2
2,CCOCC(O)COc1ccc(NC(=O)CC[S+](C)C)cc1 (stereo not drawn) [Suplatast Tosylate],-0.0169
3,CN1CCN(CCOc2cc(OC3CCOCC3)c3c(Nc4c(Cl)ccc5c4OCO5)ncnc3c2)CC1 [Saracatinib (AZD0530)],-6.44
4,Nc1ccc(S(=O)(=O)Nc2ccnn2-c2ccccc2)cc1 [Sulfaphenazole],1.15
5,CCC(=O)c1c(O)cc(O)cc1O [Flopropione],3.45
6,C=CC(=O)Nc1ccc2ncnc(Nc3cccc(Br)c3)c2c1,-5.68
7,CC1Cc2ccccc2N1NC(=O)c1ccc(Cl)c(S(N)(=O)=O)c1 (stereo not drawn) [Indapamide],3.04
8,CC(C)(C)[C@]1(O)CCN2C[C@H]3c4ccccc4CCc4cccc(c43)[C@@H]2C1 [(+)-Butaclamol hydrochloride],0.274
9,CC(C)(C)[C@]1(O)CCN2C[C@H]3c4ccccc4CCc4cccc(c43)[C@@H]2C1 (racemic) [(±)-Butaclamol hydrochloride],3.69
10,Nc1nc2[nH]c(=O)cnc2c(=O)[nH]1 [Isoxanthopterin],0.265
11,CO/N=C(\C(=O)N[C@@H]1C(=O)N2C(C(=O)O)=C(Cn3ccc(=N)n3CCO)CS[C@H]12)c1csc(N)n1 [Cefoselis Sulfate],0.982
12,Nc1ncnc2c1nc(Sc1ccc(Cl)cc1)n2C1OC2COP(=O)(O)O[C@@H]2[C@@H]1O (stereo partly drawn) [8-(4-Chlorophenylthio)-cAMP sodium],-1.26
13,CCCCCCCCCCCCCCCC(=O)O[C@@H]1[C@@H](O)[C@@H](O)[C@@H]([C@H](NC(=O)[C@@H]2C[C@@H](CCC)CN2C)[C@H](C)Cl)O[C@@H]1SC [Clindamycin palmitate HCl],-1.12
14,O=C(O)C1=CCCNC1 [Guvacine hydrochloride],0.502
15,CC(=O)Nc1ncc([N+](=O)[O-])s1 [Nithiamide],-0.185
16,O=C(NOCC1CC1)c1cc(Br)c(F)c(F)c1Nc1ccc(I)cc1Cl,-3.71
17,CCn1ccnc1CC1COc2ccccc2O1 (stereo not drawn) [Imiloxan hydrochloride],0.461
18,COc1ccc(S(=O)(=O)N(C(C)=O)c2ccccc2/C=C/c2cc[n+]([O-])cc2)cc1,-4.97
19,O=C1CC2(CCCC2)CC(=O)N1CCCCN1CCN(c2ncccn2)CC1 [Buspirone hydrochloride],-0.119
20,O=C1CC2(CCCC2)CC(=O)N1CCCCN1CCN(c2ncccn2)CC1 [Buspirone HCl],3.62
21,CC[C@H]1OC(=O)[C@H](C)[C@@H](O[C@H]2C[C@@](C)(OC)[C@@H](O)[C@H](C)O2)[C@H](C)[C@@H](O[C@@H]2O[C@H](C)C[C@H](N(C)C)[C@H]2O)[C@](C)(O)C[C@@H](C)[C@@H]2N[C@@H](COCCOC)O[C@H]([C@H]2C)[C@]1(C)O [Dirithromycin],-3.48
22,Cc1cc(C)c(/C=C2\C(=O)Nc3ccccc32)[nH]1 [Semaxanib (SU5416)],2.33
23,Cc1cc(C)c(/C=C2\C(=O)Nc3ccccc32)[nH]1,-1.1
24,O=C(NOC[C@H](O)CO)c1ccc(F)c(F)c1Nc1ccc(I)cc1F,-2.16 and -2.95
25,CC(C)c1cc(-c2ccc(F)c3ccccc23)nc(N)n1,6.85

row,SMILES,MBP+ mature oligodendrocyte number
1,c1ccc(C(NCc2cccnc2)(c2ccccc2)c2ccccc2)cc1,1.91
2,Cc1cccc(C#Cc2ccccc2)n1 [6-Methyl-2-(phenylethynyl)pyridine hydrochloride],-0.715
3,"N[C@H](C(=O)O)c1cc(O)cc(O)c1 [(S)-3,5-Dihydroxyphenylglycine]",4.16
4,O=c1cc[nH]c(=S)[nH]1 [2-Thiouracil],1.22
5,CC(C)(C)c1ccc(-c2nc3ccccc3[nH]2)cc1,10.9
6,O=C(/C=C/c1ccc(CN(CCO)CCc2c[nH]c3ccccc23)cc1)NO [LAQ824 (Dacinostat)],< -6.7
7,C=CCN1CCc2c(cc(O)c(O)c2Br)[C@@H](c2ccccc2)C1 [R(+)-6-Bromo-APB hydrobromide],-2.95
8,Oc1ccc(OCc2ccccc2)cc1 [Monobenzone],-2.09
9,"CCCn1c(=O)c2c(ncn2C)n(CCC)c1=O [1,3-Dipropyl-7-methylxanthine]",0.502
10,C[C@H]1C[C@H]2[C@@H]3CCC4=CC(=O)C=C[C@]4(C)[C@@]3(F)[C@@H](O)C[C@]2(C)[C@@]1(O)C(=O)CO [Betamethasone],6.53 ± 6.4
11,"CNC(=O)[C@H](Cc1c[nH]c2ccccc12)NC(=O)[C@@H](CC(=O)NO)CC(C)C [Ilomastat (GM6001, Galardin)]",-0.1
12,Cc1ccc(Cl)c(Nc2ccccc2C(=O)O)c1Cl [Meclofenamic acid sodium],0.147
13,O=C(NCCO[N+](=O)[O-])c1cccnc1 [Nicorandil],1.06
14,CC(C)(Cc1ccc2ccccc2c1)NC[C@@H](O)COc1cccc(Cl)c1C#N,< -6.01
15,O=C(c1cn(Cc2cncn2Cc2ccc(Br)cc2)cc1-c1cccc2ccccc12)N1CCOCC1,-2.66
16,CCN1CCN(C(=O)N[C@@H](C(=O)N[C@@H]2C(=O)N3C(C(=O)O)=C(CSc4nnnn4C)CS[C@H]23)c2ccc(O)cc2)C(=O)C1=O [Cefoperazone],-4.88
17,CN(C)CCOc1ccc(/C(=C(/CCCl)c2ccccc2)c2ccccc2)cc1 [Toremifene Citrate],< -5.15
18,Cc1cc(Nc2ncnc3ccc(-c4ccc(CNCCS(C)(=O)=O)o4)cc23)ccc1Oc1ccn2ncnc2c1 [HER2-Inhibitor-1],< -6.01
19,CC1=Nc2ccc(Cl)cc2S(=O)(=O)N1 [Diazoxide],0.973
20,O=c1c(-c2ccc(O)cc2)coc2c([C@@H]3O[C@H](CO)[C@@H](O)[C@H](O)[C@H]3O)c(O)ccc12 [Puerarin],-0.836
21,CCn1nc(C(=O)O)c(=O)c2cc3c(cc21)OCO3 [Cinoxacin],-0.551
22,COCCOC(=O)C1=C(C)NC(C)=C(C(=O)OC/C=C/c2ccccc2)C1c1cccc([N+](=O)[O-])c1 (stereo not drawn) [Cilnidipine],11.4 ± 2.9
23,CCOc1nc2cccc(C(=O)O)c2n1Cc1ccc(-c2ccccc2-c2noc(=O)[nH]2)cc1 [Azilsartan],0.58
